In all, about 91,000 compounds went through this assay and about 130 (0.14%) were called active. The inconclusive results got no clear call from the source; some entries with a clear call stand among them for comparison. Calls come from the whole dose curve; as a rule, active = well fitted inhibition curve with a large enough effect; inconclusive = small, poorly fitted or top-dose-only effect; inactive = flat fitted curve, though single readings scatter. Potencies beside an inconclusive call are fits to weak or partial responses and may not hold up.
tested on: Uracil-DNA glycosylase; experiment: Primary qHTS assay for inhibitors of Activation Induced Cytidine Deaminase (AID): UDG Counterscreen signal; conditions: FRET deamination/UDG coupled assay, UDG read, 4 h; series mostly up to 115 µM; note: nearly all actives have a fitted effect of over 65% in size
Potency is the fitted concentration of half-maximal effect; tags give direction and shape of the fitted curve.

Question: Which Potency does the source give for `Cc1ccccc1/[N+]([O-])=C/c1ccco1` here?
Answer: inconclusive: 25.1 µM [inhibitor, partial curve, poor fit]

Question: Which Potency does the source give for `Cc1cc(OCCn2c(C3CC(=O)N(Cc4ccc(F)cc4)C3)nc3ccccc32)ccc1Cl` (stereo unspecified) here?
Answer: inconclusive: 79.4 µM [inhibitor, partial curve, poor fit]

Question: Which Potency does the source give for `COc1cccc(CNC(=O)Cn2cc3c(n2)-c2c(oc(C(=O)N4CCOCC4)c2C)CC3)c1` here?
Answer: inconclusive: 89.1 µM [inhibitor, partial curve, poor fit]

Question: `O=S(=O)(NCCc1csc(-c2ccc(F)cc2)n1)c1ccc(F)cc1F` was tested. Which Potency did it give?
Answer: inconclusive: 89.1 µM [inhibitor, single point]

Question: How did the Potency turn out when `CCCOc1c(Cl)cc(C2C3=C(CCCC3=O)OC3=C2C(=O)CCC3)cc1OCC` was run?
Answer: inconclusive: 89.1 µM [inhibitor, single point]

Question: For `c1ccc(-c2nc(NCCN3CCOCC3)c3ccccc3n2)cc1`, which Potency is on record?
Answer: inactive

Question: How did the Potency turn out when `Cc1ccc(-c2noc(-c3cccnc3NCc3ccc(Cl)cc3)n2)cc1` was run?
Answer: inconclusive: 89.1 µM [inhibitor, single point]

Question: `COCCCNc1oc(-c2ccc(COc3cccc(C)c3)o2)nc1C#N` was tested. Which Potency did it give?
Answer: inconclusive: 89.1 µM [inhibitor, single point]

Question: `COC(=O)c1ccccc1NC(=O)Nc1cccc(OCc2cc(=O)n3cccc(C)c3n2)c1` was tested. Which Potency did it give?
Answer: inconclusive: 100 µM [inhibitor, single point]

Question: Which Potency does the source give for `Cc1cccc(NC(=O)COC(=O)c2cc(C)nc3ccccc23)c1` here?
Answer: inactive

Question: `Cc1cc(C)cc(NC(=O)CCc2nnc3n(C)c(=O)c4sccc4n23)c1` was tested. Which Potency did it give?
Answer: inconclusive: 89.1 µM [inhibitor, partial curve, poor fit]

Question: With `CCOc1ccc(NC(=O)C2CCN(c3nc4ccccc4[nH]3)CC2)cc1` as the molecule, how does the Potency read?
Answer: inconclusive: 89.1 µM [inhibitor, single point]

Question: For `Cn1c2ccccc2c2c(C(=O)N3CCN(c4cccc(Cl)c4)CC3)cn(C3CCCCC3)c(=O)c21`, which Potency is on record?
Answer: inconclusive: 79.4 µM [inhibitor, single point]

Question: With `Cc1ccc(S(=O)(=O)N2CCN(Cc3cc(Br)ccc3O)CC2)cc1` as the molecule, how does the Potency read?
Answer: inconclusive: 100 µM [inhibitor, partial curve, poor fit]

Question: With `COc1ccc(-c2nnc(SCC(=O)Nc3cc(OC)ccc3OC)nc2-c2ccc(OC)cc2)cc1` as the molecule, how does the Potency read?
Answer: inconclusive: 79.4 µM [inhibitor, single point]

Question: Which Potency does the source give for `Cc1cccc(-c2noc(-c3ccc(NCc4ccco4)c([N+](=O)[O-])c3)n2)c1` here?
Answer: inconclusive: 89.1 µM [inhibitor, single point]

Question: For `Cc1ccc(-c2cc(C(=O)OCC(=O)N3CCCC3=O)c3ccccc3n2)o1`, which Potency is on record?
Answer: inactive

Question: Which Potency does the source give for `CSc1ccc(C(C)NC(=O)C2CC=CCC2)cc1` (stereo unspecified) here?
Answer: inactive

Question: `O=C(O)CC(NC(=O)c1ccccc1F)c1ccc(OC2CCCC2)cc1` (stereo unspecified) was tested. Which Potency did it give?
Answer: inactive

Question: `Cc1ccc(C)c(OCCn2c(C3CC(=O)N(Cc4ccc(F)cc4)C3)nc3ccccc32)c1` (stereo unspecified) was tested. Which Potency did it give?
Answer: active: 79.4 µM

Question: For `Cc1ccc(/C=C/C(=O)Nc2nc(-c3cccs3)ns2)cc1`, which Potency is on record?
Answer: inactive

Question: Which Potency does the source give for `Cc1nn2c(C)c(C(=O)NCc3ccc(OC(C)C)cc3)cnc2c1-c1ccc(F)cc1` here?
Answer: inconclusive: 89.1 µM [inhibitor, single point]

Question: Which Potency does the source give for `COc1cccc(C(=O)Oc2c(Sc3ccc(C)cc3)c(C)nn2C(C)(C)C)c1OC` here?
Answer: inconclusive: 89.1 µM [inhibitor, single point]

Question: For `CCOc1ccc(C(=O)NCC(c2cccs2)S(=O)(=O)c2ccccc2)cc1` (stereo unspecified), which Potency is on record?
Answer: inconclusive: 79.4 µM [inhibitor, partial curve, poor fit]

Question: Which Potency does the source give for `Cc1cccc(C(=O)N2CCc3cc(CNC(=O)CSc4ccccc4)ccc32)c1` here?
Answer: inconclusive: 79.4 µM [inhibitor, partial curve, poor fit]

Question: How did the Potency turn out when `COC(=O)c1sc2c(c1C)c(=O)n(-c1ccccc1)c(=O)n2CC(=O)Nc1cccc(C)c1` was run?
Answer: inconclusive: 100 µM [inhibitor, single point]

Question: For `CCN(C(=O)Cn1c(=O)oc2cc(S(=O)(=O)N3CCCCC3)ccc21)c1ccccc1`, which Potency is on record?
Answer: inconclusive: 89.1 µM [inhibitor, single point]

Question: For `Cc1c(Cl)cccc1NC(=O)CSc1ccc(-c2ccccn2)nn1`, which Potency is on record?
Answer: inconclusive: 89.1 µM [inhibitor, single point]

Question: For `COc1ccc(C)cc1NC(=O)C(=O)NCC(c1cccnc1)N1CCN(c2ccccc2F)CC1` (stereo unspecified), which Potency is on record?
Answer: inconclusive: 89.1 µM [inhibitor, single point]

Question: How did the Potency turn out when `CCCCNc1nc(-c2ccc(N(CC)S(C)(=O)=O)cc2)cs1` was run?
Answer: inactive

Question: Which Potency does the source give for `Cc1ccc(C(=O)COC(=O)c2cc(-c3cccs3)nc3ccccc23)cc1` here?
Answer: inconclusive: 79.4 µM [inhibitor, single point]

Question: With `N#Cc1nc(-c2ccco2)oc1N1CCN(C(=O)NCC2CC2)CC1` as the molecule, how does the Potency read?
Answer: inactive

Question: For `COCCN(Cc1cc2ccc(C)cc2[nH]c1=O)C(=O)c1cccc(OC)c1`, which Potency is on record?
Answer: inactive

Question: Which Potency does the source give for `Cc1ccccc1Nc1c(-c2ccccc2)nc2cccc(C)n12` here?
Answer: inactive

Question: For `CC1CCCN(S(=O)(=O)c2cc3c4c(c2)CC(=O)N4CCC3)C1` (stereo unspecified), which Potency is on record?
Answer: inconclusive: 89.1 µM [inhibitor, partial curve, poor fit]

Question: With `O=S(Cc1ccccc1)Cc1cccc(C(F)(F)F)c1` (stereo unspecified) as the molecule, how does the Potency read?
Answer: inactive

Question: How did the Potency turn out when `COc1ccc(-n2cc(C(=O)Oc3cc(C)cc(C)c3)c3ccccc3c2=O)cc1` was run?
Answer: inconclusive: 89.1 µM [inhibitor, single point]

Question: How did the Potency turn out when `CC(C)C(=O)Nc1ccc2nc(SCC(=O)N3CCc4ccccc43)sc2c1` was run?
Answer: inconclusive: 89.1 µM [inhibitor, single point]

Question: For `CC1CCN(C(=O)CSc2nc3ccccc3nc2Cc2ccccc2)CC1`, which Potency is on record?
Answer: inconclusive: 89.1 µM [inhibitor, partial curve, poor fit]

Question: With `Cc1ccc(C)c(S(=O)(=O)N2CCN(C(=O)CCc3ncc(-c4ccc(F)cc4F)o3)CC2)c1` as the molecule, how does the Potency read?
Answer: inactive

Question: How did the Potency turn out when `CCCCCn1nc(C(=O)N2CCSCC2)c2ccccc2c1=O` was run?
Answer: inactive

Question: With `O=C(Nc1nnc(S(=O)(=O)N2CCCCCC2)s1)c1ccc(Cl)cc1` as the molecule, how does the Potency read?
Answer: inconclusive: 89.1 µM [inhibitor, single point]

Question: Which Potency does the source give for `COc1ccc(CCNC(=O)c2c(C)oc3ncn(CC(C)C)c(=O)c23)c(OC)c1` here?
Answer: inconclusive: 89.1 µM [inhibitor, single point]

Question: How did the Potency turn out when `N#Cc1c(/N=C/c2cccc(Br)c2)sc2c1CCCC2` was run?
Answer: inactive

Question: With `Cc1ccc(-c2ccc(/C=C/C(=O)c3ccccc3)o2)cc1Cl` as the molecule, how does the Potency read?
Answer: inactive

Question: Which Potency does the source give for `Cc1ccc2oc(=O)cc(-c3cc4ccccc4o3)c2c1` here?
Answer: inactive

Question: With `Cc1ccc(S(=O)(=O)N(CC(=O)NCCSc2ccc(Cl)cc2)c2cccc(Cl)c2)cc1` as the molecule, how does the Potency read?
Answer: inconclusive: 89.1 µM [inhibitor, single point]

Question: For `Cc1ccc(S(=O)(=O)CCC(=O)N2CCN(c3nc4c(C)c(C)ccc4s3)CC2)cc1`, which Potency is on record?
Answer: inconclusive: 89.1 µM [inhibitor, single point]

Question: `COc1ccc(S(=O)(=O)Nc2cc3c(cc2NCc2ccccc2)n(C)c(=O)n3C)cc1` was tested. Which Potency did it give?
Answer: inconclusive: 89.1 µM [inhibitor, partial curve, poor fit]

Question: For `Cc1c(C(=O)NCc2ccccc2Cl)sc2nc[nH]c(=O)c12`, which Potency is on record?
Answer: inconclusive: 89.1 µM [inhibitor, single point]

Question: `CCOC(=O)c1ccc(OCc2ccccc2C#N)cc1` was tested. Which Potency did it give?
Answer: inactive

Question: Which Potency does the source give for `CCN1C(=O)C(Cc2nc3ccccc3c(=O)n2-c2ccccc2)c2cc(Br)ccc21` (stereo unspecified) here?
Answer: inconclusive: 89.1 µM [inhibitor, partial curve, poor fit]

Question: For `CCc1ccccc1NC(=O)CCc1ncc(-c2ccc(F)cc2F)o1`, which Potency is on record?
Answer: inactive

Question: `Cc1oc(-c2ccccc2)nc1C(=O)OCC(=O)N1CCCCC1` was tested. Which Potency did it give?
Answer: inconclusive: 89.1 µM [inhibitor, single point]

Question: Which Potency does the source give for `CCOC(=O)c1c(C)oc2nc(C)nc(NCC3CCN(Cc4cccc(Cl)c4)CC3)c12` here?
Answer: inconclusive: 79.4 µM [inhibitor, partial curve, poor fit]

Question: Which Potency does the source give for `O=C(C1=C(c2ccccc2)SCCO1)N(Cc1cccc2ccccc12)C1CCS(=O)(=O)C1` (stereo unspecified) here?
Answer: inactive

Question: With `CCC(C(=O)N1CCN(c2ccccc2)CC1)n1nc(C)c2sc3ccccc3c2c1=O` (stereo unspecified) as the molecule, how does the Potency read?
Answer: inconclusive: 89.1 µM [inhibitor, single point]

Question: Which Potency does the source give for `COc1ccccc1-c1noc(-c2ccc(NC(C)C)c([N+](=O)[O-])c2)n1` here?
Answer: inconclusive: 79.4 µM [inhibitor, single point]

Question: `COc1ccc(-c2nn(-c3cccc(F)c3)c3c2cnc2cc(OC)c(OC)cc23)cc1` was tested. Which Potency did it give?
Answer: inconclusive: 79.4 µM [inhibitor, partial curve, poor fit]

Question: `CC(=O)c1cccc(NC(=O)c2ccc3c(=O)n(-c4ccccc4F)cnc3c2)c1` was tested. Which Potency did it give?
Answer: inactive

Question: `Cc1nn(C(=O)c2ccc(Br)cc2)c(C)c1Sc1ccccc1` was tested. Which Potency did it give?
Answer: inconclusive: 100 µM [inhibitor, partial curve, poor fit]

Question: How did the Potency turn out when `O=C(NCc1ccccc1)c1cnc(N2CCCCC2)c2ccccc12` was run?
Answer: inconclusive: 79.4 µM [inhibitor, single point]

Question: With `COc1cccc(N2CCN(S(=O)(=O)c3ccc(-c4ccno4)cc3OC)CC2)c1` as the molecule, how does the Potency read?
Answer: inconclusive: 89.1 µM [inhibitor, single point]

Question: How did the Potency turn out when `O=C(Nc1ccc2nc(SCC(=O)N3CCc4ccccc43)sc2c1)c1ccccc1F` was run?
Answer: inconclusive: 100 µM [inhibitor, single point]

Question: How did the Potency turn out when `O=C(CSc1nnc(-c2c[nH]c3ccccc23)o1)N1CCCC1` was run?
Answer: inconclusive: 89.1 µM [inhibitor, single point]

Question: With `O=C(Cn1c(=O)oc2cc(S(=O)(=O)NCc3ccccc3)ccc21)NCc1ccc(Cl)cc1` as the molecule, how does the Potency read?
Answer: inconclusive: 89.1 µM [inhibitor, single point]
